Source: publication PMC7763487 (2020)
Results are given in words; binding and its absence hold for the method and conditions named. In cells and extracts the contact can be indirect. Some entries that bind do so weakly or less than the wild type. Where a sequence is shown, tags or fusion partners need not be part of it. Values belong to the binder of their own block, whether it stands above or below them.

By UniProt entry, the sequences of proteins in these tests, tags left out. Where a name states a change or a piece, a line headed by the entry shows the natural chain unless it says otherwise. Residues count along the entry.
UniProt Q3URK3: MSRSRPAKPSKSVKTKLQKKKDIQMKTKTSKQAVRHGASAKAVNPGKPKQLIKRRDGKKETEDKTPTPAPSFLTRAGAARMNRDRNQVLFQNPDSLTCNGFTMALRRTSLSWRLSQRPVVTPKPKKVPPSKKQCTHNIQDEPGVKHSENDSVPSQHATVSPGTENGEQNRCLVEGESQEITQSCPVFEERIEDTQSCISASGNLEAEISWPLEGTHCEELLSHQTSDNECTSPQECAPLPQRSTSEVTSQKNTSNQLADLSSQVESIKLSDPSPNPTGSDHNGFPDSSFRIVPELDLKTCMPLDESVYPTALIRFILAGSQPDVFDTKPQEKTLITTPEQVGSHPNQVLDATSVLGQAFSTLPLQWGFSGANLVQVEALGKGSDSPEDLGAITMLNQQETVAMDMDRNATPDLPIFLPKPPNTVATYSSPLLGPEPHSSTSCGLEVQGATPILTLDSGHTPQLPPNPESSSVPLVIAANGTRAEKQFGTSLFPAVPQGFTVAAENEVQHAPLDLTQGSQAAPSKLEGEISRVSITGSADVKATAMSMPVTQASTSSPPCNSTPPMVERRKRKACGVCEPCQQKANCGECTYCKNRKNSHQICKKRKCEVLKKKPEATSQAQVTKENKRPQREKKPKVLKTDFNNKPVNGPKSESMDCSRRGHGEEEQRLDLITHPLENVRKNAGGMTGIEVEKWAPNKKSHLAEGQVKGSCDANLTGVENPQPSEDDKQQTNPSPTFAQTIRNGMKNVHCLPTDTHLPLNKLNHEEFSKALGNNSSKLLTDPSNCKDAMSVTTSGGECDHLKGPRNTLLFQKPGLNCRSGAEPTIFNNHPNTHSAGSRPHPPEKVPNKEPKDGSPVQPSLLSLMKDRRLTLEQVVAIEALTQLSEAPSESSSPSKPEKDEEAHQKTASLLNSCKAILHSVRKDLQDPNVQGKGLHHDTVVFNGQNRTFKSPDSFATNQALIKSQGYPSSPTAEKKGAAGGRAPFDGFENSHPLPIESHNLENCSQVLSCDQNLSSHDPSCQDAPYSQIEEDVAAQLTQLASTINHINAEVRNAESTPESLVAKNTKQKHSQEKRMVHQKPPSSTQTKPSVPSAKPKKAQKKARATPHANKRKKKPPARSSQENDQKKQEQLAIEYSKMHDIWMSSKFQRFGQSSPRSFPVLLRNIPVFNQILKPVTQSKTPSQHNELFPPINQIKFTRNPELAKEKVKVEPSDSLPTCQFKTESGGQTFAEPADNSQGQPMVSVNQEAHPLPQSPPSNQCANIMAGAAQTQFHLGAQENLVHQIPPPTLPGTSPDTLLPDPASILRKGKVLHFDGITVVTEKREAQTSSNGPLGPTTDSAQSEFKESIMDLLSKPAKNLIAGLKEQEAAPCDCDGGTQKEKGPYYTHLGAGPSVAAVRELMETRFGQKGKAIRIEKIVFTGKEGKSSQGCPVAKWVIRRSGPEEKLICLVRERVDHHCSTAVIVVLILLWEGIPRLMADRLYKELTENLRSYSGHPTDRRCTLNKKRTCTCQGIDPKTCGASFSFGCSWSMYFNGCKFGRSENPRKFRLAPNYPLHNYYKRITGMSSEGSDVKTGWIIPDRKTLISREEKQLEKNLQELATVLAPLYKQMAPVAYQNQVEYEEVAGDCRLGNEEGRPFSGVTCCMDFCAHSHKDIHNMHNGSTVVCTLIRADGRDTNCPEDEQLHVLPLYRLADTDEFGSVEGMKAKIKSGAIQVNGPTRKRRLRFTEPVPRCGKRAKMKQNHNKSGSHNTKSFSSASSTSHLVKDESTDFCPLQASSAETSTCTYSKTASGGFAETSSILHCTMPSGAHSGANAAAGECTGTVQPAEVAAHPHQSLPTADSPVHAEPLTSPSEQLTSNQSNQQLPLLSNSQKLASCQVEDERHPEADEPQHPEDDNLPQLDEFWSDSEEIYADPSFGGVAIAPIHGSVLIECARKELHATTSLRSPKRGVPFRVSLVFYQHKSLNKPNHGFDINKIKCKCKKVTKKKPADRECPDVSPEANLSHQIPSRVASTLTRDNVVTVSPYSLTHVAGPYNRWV
MBP-TET1 1–321: residues 1-321 of Q3URK3
MBP-TET1 1–215: residues 1-215 of Q3URK3
MBP-TET1 1–165: residues 1-165 of Q3URK3
MBP-TET1 1–120: residues 1-120 of Q3URK3
(Flag)3-TET1 734–2039: residues 734-2039 of Q3URK3

Assays:
[1] = target: TET1-(Flag)3, endogenous TET1 of Tet1-(Flag)3 ESCs (mouse (endogenous in mouse ESCs)) (UniProt Q3URK3); assay: co-IP; nuclear protein extracts (Benzonase-treated) of Tet1-(Flag)3 ESCs, about 200 million cells; anti-Flag magnetic beads, 2 h at room temperature, three washes with PBS; NANOG found by immunoblot; E14Tg2a ESCs as control
[2] = target: MBP-TET1 1–120 (mouse) (UniProt Q3URK3); assay: pull-down; MBP-tagged constructs co-expressed with NANOG constructs in E. coli; bacterial extract (25 mM Tris–HCl pH 8.0, 200 mM NaCl) on amylose resin, one wash, elution with 10 mM maltose, immunoblot of the eluate
[3] = target: MBP-TET1 1–165 (mouse) (UniProt Q3URK3); assay: as above
[4] = target: MBP-TET1 1–215 (mouse) (UniProt Q3URK3); assay: as above
[5] = target: MBP-TET1 1–321 (mouse) (UniProt Q3URK3); assay: as above
[6] = target: (Flag)3-TET1 734–2039 (mouse) (UniProt Q3URK3); assay: co-IP; (Flag)3-TET1 constructs and (HA)3-NANOG constructs expressed together in E14/T ESCs; Benzonase-treated nuclear protein extracts (350 mM KCl); TET1 immunoprecipitated by its Flag tag, immunoblot; for TET1(734–1169) also after phosphatase treatment of the extracts

binding [1]: binds
B1: NANOG, endogenous in Tet1-(Flag)3 ESCs (protein, UniProt Q80Z64 1-305)
chain: MSVGLPGPHSLPSSEEASNSGNASSMPAVFHPENYSCLQGSATEMLCTEAASPRPSSEDLPLQGSPDSSTSPKQKLSSPEADKGPEEEENKVLARKQKMRTVFSQAQLCALKDRFQKQKYLSLQQMQELSSILNLSYKQVKTWFQNQRMKCKRWQKNQWLKTSNGLIQKGSAPVEYPSIHCSYPQGYLVNASGSLSMWGSQTWTNPTWSSQTWTNPTWNNQTWTNPTWSSQAWTAQSWNGQPWNAAPLHNFGEDFLQPYVQLQQNFSASDLEVNLEATRESHAHFSTPQALELFLNYSVTPPGEI

binding [5]: binds
B5: (His)6-NANOG 194–305 (domain or fragment, UniProt Q80Z64 194-305)
chain: SLSMWGSQTWTNPTWSSQTWTNPTWNNQTWTNPTWSSQAWTAQSWNGQPWNAAPLHNFGEDFLQPYVQLQQNFSASDLEVNLEATRESHAHFSTPQALELFLNYSVTPPGEI

Continued, binder first:

B2: (His)6-NANOG (protein, UniProt Q80Z64 1-305)
chain: B1 chain
binding [2]: binds
binding [3]: binds
binding [4]: binds
binding [5]: binds

B3: (HA)3-NANOG ΔWR (protein, UniProt Q80Z64)
chain: MSVGLPGPHSLPSSEEASNSGNASSMPAVFHPENYSCLQGSATEMLCTEAASPRPSSEDLPLQGSPDSSTSPKQKLSSPEADKGPEEEENKVLARKQKMRTVFSQAQLCALKDRFQKQKYLSLQQMQELSSILNLSYKQVKTWFQNQRMKCKRWQKNQWLKTSNGLIQKGSAPVEYPSIHCSYPQGYLVNASGSLSMWNAAPLHNFGEDFLQPYVQLQQNFSASDLEVNLEATRESHAHFSTPQALELFLNYSVTPPGEI
binding [6]: binds

B4: (His)6-NANOG 1–160 (domain or fragment, UniProt Q80Z64 1-160)
chain: MSVGLPGPHSLPSSEEASNSGNASSMPAVFHPENYSCLQGSATEMLCTEAASPRPSSEDLPLQGSPDSSTSPKQKLSSPEADKGPEEEENKVLARKQKMRTVFSQAQLCALKDRFQKQKYLSLQQMQELSSILNLSYKQVKTWFQNQRMKCKRWQKNQWL
binding [5]: binds

B6: (His)6-NANOG 91–246 (domain or fragment, UniProt Q80Z64 91-246)
chain: KVLARKQKMRTVFSQAQLCALKDRFQKQKYLSLQQMQELSSILNLSYKQVKTWFQNQRMKCKRWQKNQWLKTSNGLIQKGSAPVEYPSIHCSYPQGYLVNASGSLSMWGSQTWTNPTWSSQTWTNPTWNNQTWTNPTWSSQAWTAQSWNGQPWNAA
binding [5]: binds
